According to the supplement of paper PMC12217912:
This is one part of the list. Sequences were assembled here from the parent chain. Values near 0.05 are background.

B1: TEV protease; numbered along this chain (parent)
chain: MGESLFKGPRDYNPISSSICHLTNESDGHTTSLYGIGFGPFIITNKHLFRRNNGTLVVQSLHGVFKVKDTTTLQQHLVDGRDMIIIRMPKDFPPFPQKLKFREPQREERICLVTTNFQTKSMSSMVSDTSCTFPSGDGIFWKHWIQTKDGQCGSPLVSTRDGFIVGIHSASNFTNTNNYFTSVPKNFMELLTNQEAQQWVSGWRLNADSVLWGGHKVFMVKPEEPFQPVKEATQL

Variants of: B1
Assay: raw area under fraction-flipped curve 0-4 h after induction (AUC4h, not background-subtracted), DNA-recorder readout of cleavage of the substrate (dimensionless); higher = more cleavage of the substrate by the protease variant
Settings: temperature: 34 °C; time window: 0-4 h after rhamnose induction
Method: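 In vivo DNA recorder in E. coli TOP10(DE3) ΔrhaA at 34 °C. Each TEVp single-site mutant (parent TEVp 0) is paired with a single-site variant of the 7-mer TEVs (canonical ENLYFQ|S). The substrate sits between flexible linkers in a Bxb1-sfGFP-TEVs-SsrA fusion, so cleavage stabilises Bxb1 and speeds flipping of a recombination array, read by NGS. The value is the raw area under the fraction-flipped curve over 0-4 h after rhamnose induction (AUC4h), with ≥20 reads per time point. It is not background-subtracted; inactive controls average about 0.047.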
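Also: Bxb1 expression induced with 0.2% (w/v) L-rhamnose at OD600 near 0.5, cultures sampled hourly, flipped fraction per protease–substrate barcode pair counted by paired-end Illumina sequencing.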

Row | Variant | area with substrate ENLYFQA | area with substrate ENLYFQC | area with substrate ENLYFQF | area with substrate ENLYFQG | area with substrate ENLYFQH | area with substrate ENLYFQI | area with substrate ENLYFQL | area with substrate ENLYFQM | area with substrate ENLYFQN | area with substrate ENLYFQR | area with substrate ENLYFQS | area with substrate ENLYFQV | area with substrate ENLYFQD | area with substrate ENLYFQK | area with substrate ENLYFQT | area with substrate ENLYFQW | area with substrate ENLYFQY | area with substrate ENLYFQE | area with substrate ENLYFQP | area with substrate ENLYFQQ
1 | MGESLFKGPRDYNKISSSICHLTNESDGHTTSLYGIGFGPFIITNKHLFRRNNGTLVVQSLHGVFKVKDTTTLQQHLVDGRDMIIIRMPKDFPPFPQKLKFREPQREERICLVTTNFQTKSMSSMVSDTSCTFPSGDGIFWKHWIQTKDGQCGSPLVSTRDGFIVGIHSASNFTNTNNYFTSVPKNFMELLTNQEAQQWVSGWRLNADSVLWGGHKVFMVKPEEPFQPVKEATQL [P14K] | 0.104 | 0.068 | 0.0709 | 0.0583 | 0.0654 | 0.0488 | 0.058 | 0.0783 | 0.0521 | 0.0603 | 0.0918 | 0.0566 | – | – | – | – | – | – | – | –
2 | MGESLFKGPRDYNPISSSICVLTNESDGHTTSLYGIGFGPFIITNKHLFRRNNGTLVVQSLHGVFKVKDTTTLQQHLVDGRDMIIIRMPKDFPPFPQKLKFREPQREERICLVTTNFQTKSMSSMVSDTSCTFPSGDGIFWKHWIQTKDGQCGSPLVSTRDGFIVGIHSASNFTNTNNYFTSVPKNFMELLTNQEAQQWVSGWRLNADSVLWGGHKVFMVKPEEPFQPVKEATQL [H21V] | 0.0984 | 0.0997 | – | 0.104 | 0.0873 | 0.064 | 0.0615 | – | 0.0764 | 0.0629 | 0.0961 | 0.0595 | 0.0802 | 0.0622 | 0.0769 | 0.0667 | 0.0755 | – | – | –
3 | MGESLFKGPDDYNPISSSICHLTNESDGHTTSLYGIGFGPFIITNKHLFRRNNGTLVVQSLHGVFKVKDTTTLQQHLVDGRDMIIIRMPKDFPPFPQKLKFREPQREERICLVTTNFQTKSMSSMVSDTSCTFPSGDGIFWKHWIQTKDGQCGSPLVSTRDGFIVGIHSASNFTNTNNYFTSVPKNFMELLTNQEAQQWVSGWRLNADSVLWGGHKVFMVKPEEPFQPVKEATQL [R10D] | 0.0946 | 0.105 | – | 0.0861 | 0.0655 | – | 0.083 | 0.0819 | 0.0819 | 0.0645 | 0.0969 | 0.0681 | 0.0553 | – | 0.0705 | 0.0636 | – | 0.0596 | 0.0634 | 0.0728
4 | MGESLFKGPRDYHPISSSICHLTNESDGHTTSLYGIGFGPFIITNKHLFRRNNGTLVVQSLHGVFKVKDTTTLQQHLVDGRDMIIIRMPKDFPPFPQKLKFREPQREERICLVTTNFQTKSMSSMVSDTSCTFPSGDGIFWKHWIQTKDGQCGSPLVSTRDGFIVGIHSASNFTNTNNYFTSVPKNFMELLTNQEAQQWVSGWRLNADSVLWGGHKVFMVKPEEPFQPVKEATQL [N13H] | 0.1 | 0.131 | – | 0.114 | – | 0.0797 | 0.0708 | 0.103 | 0.0841 | 0.0545 | 0.101 | 0.0578 | – | 0.0674 | 0.0718 | 0.063 | 0.0959 | – | 0.0515 | –
5 | MGESLFKGPRDYFPISSSICHLTNESDGHTTSLYGIGFGPFIITNKHLFRRNNGTLVVQSLHGVFKVKDTTTLQQHLVDGRDMIIIRMPKDFPPFPQKLKFREPQREERICLVTTNFQTKSMSSMVSDTSCTFPSGDGIFWKHWIQTKDGQCGSPLVSTRDGFIVGIHSASNFTNTNNYFTSVPKNFMELLTNQEAQQWVSGWRLNADSVLWGGHKVFMVKPEEPFQPVKEATQL [N13F] | 0.0963 | 0.0918 | 0.0671 | 0.0867 | 0.0749 | 0.0651 | 0.0551 | 0.0795 | 0.0669 | 0.0585 | 0.0946 | 0.0705 | 0.0835 | 0.0846 | 0.0622 | 0.0667 | 0.0691 | – | 0.0677 | 0.069
6 | MGCSLFKGPRDYNPISSSICHLTNESDGHTTSLYGIGFGPFIITNKHLFRRNNGTLVVQSLHGVFKVKDTTTLQQHLVDGRDMIIIRMPKDFPPFPQKLKFREPQREERICLVTTNFQTKSMSSMVSDTSCTFPSGDGIFWKHWIQTKDGQCGSPLVSTRDGFIVGIHSASNFTNTNNYFTSVPKNFMELLTNQEAQQWVSGWRLNADSVLWGGHKVFMVKPEEPFQPVKEATQL [E3C] | 0.109 | 0.133 | – | – | – | 0.0519 | – | – | 0.0751 | 0.0604 | 0.124 | 0.0597 | 0.0682 | 0.0715 | 0.0642 | – | 0.0724 | 0.0696 | 0.0622 | –
7 | MGRSLFKGPRDYNPISSSICHLTNESDGHTTSLYGIGFGPFIITNKHLFRRNNGTLVVQSLHGVFKVKDTTTLQQHLVDGRDMIIIRMPKDFPPFPQKLKFREPQREERICLVTTNFQTKSMSSMVSDTSCTFPSGDGIFWKHWIQTKDGQCGSPLVSTRDGFIVGIHSASNFTNTNNYFTSVPKNFMELLTNQEAQQWVSGWRLNADSVLWGGHKVFMVKPEEPFQPVKEATQL [E3R] | 0.078 | 0.135 | 0.0936 | – | 0.0833 | 0.0819 | 0.0634 | 0.0658 | – | – | 0.0905 | 0.0591 | – | 0.0618 | 0.0534 | – | – | – | – | –
8 | MGESLFKGPRDYNPISSSICHCTNESDGHTTSLYGIGFGPFIITNKHLFRRNNGTLVVQSLHGVFKVKDTTTLQQHLVDGRDMIIIRMPKDFPPFPQKLKFREPQREERICLVTTNFQTKSMSSMVSDTSCTFPSGDGIFWKHWIQTKDGQCGSPLVSTRDGFIVGIHSASNFTNTNNYFTSVPKNFMELLTNQEAQQWVSGWRLNADSVLWGGHKVFMVKPEEPFQPVKEATQL [L22C] | 0.081 | 0.0965 | – | 0.0763 | 0.0687 | 0.059 | 0.0586 | 0.0682 | 0.0644 | 0.0607 | 0.0888 | 0.0575 | – | 0.093 | – | – | 0.0687 | – | – | –
9 | MGESLFKGPRDYNPISSSWCHLTNESDGHTTSLYGIGFGPFIITNKHLFRRNNGTLVVQSLHGVFKVKDTTTLQQHLVDGRDMIIIRMPKDFPPFPQKLKFREPQREERICLVTTNFQTKSMSSMVSDTSCTFPSGDGIFWKHWIQTKDGQCGSPLVSTRDGFIVGIHSASNFTNTNNYFTSVPKNFMELLTNQEAQQWVSGWRLNADSVLWGGHKVFMVKPEEPFQPVKEATQL [I19W] | 0.0499 | 0.058 | 0.0519 | 0.0559 | 0.049 | – | 0.053 | – | 0.043 | 0.041 | 0.0576 | – | – | 0.0587 | – | 0.0616 | 0.0428 | – | – | –
